Reference: the antibiotic and cytotoxicity screens of Wong et al. (2023)
The other results are listed elsewhere or left out.

Experiments:
HSkMC = human skeletal muscle cells; test: cytotoxicity call (relative viability < 0.9); conditions: 10 µM
HepG2 = test: cytotoxicity call (relative viability < 0.9); conditions: 10 µM
S. aureus RN4220 = test: growth inhibition call (relative growth <= 0.2); conditions: 50 µM

Row | Compound | cytotoxicity call (HSkMC) | cytotoxicity call (HepG2) | growth inhibition call (S. aureus RN4220)
1 | O=C(CN1CCOCC1)N[C@H]1CC[C@@H](CCNS(=O)(=O)c2ccccc2F)O[C@@H]1CO | inactive | inactive | inactive
2 | O=C(O)CNC(=O)c1cc2ccccc2[nH]1 | inactive | inactive | inactive
3 | C[C@H]1CN([C@@H](C)CO)C(=O)c2cc(C#CC3(O)CCCC3)cnc2O[C@H]1CN(C)S(=O)(=O)c1cccc(F)c1 | inactive | inactive | inactive
4 | C[C@H]1CN([C@@H](C)CO)S(=O)(=O)c2ccc(-c3cccnc3)cc2O[C@@H]1CN(C)CC1CCOCC1 | inactive | inactive | inactive
5 | CNC[C@@H]1Oc2ccc(NS(=O)(=O)c3cn(C)cn3)cc2C(=O)N([C@H](C)CO)C[C@H]1C | inactive | inactive | inactive
6 | C[C@H](CO)N1C[C@H](C)[C@@H](CN(C)C(=O)Nc2ccccc2)Oc2ccc(NS(=O)(=O)c3cn(C)cn3)cc2CC1=O | inactive | inactive | inactive
7 | Cc1ccc(S(=O)(=O)N(C)C[C@H]2OCCCC[C@@H](C)Oc3ccc(NS(C)(=O)=O)cc3C(=O)N([C@@H](C)CO)C[C@@H]2C)cc1 | inactive | inactive | inactive
8 | C[C@@H]1CN([C@H](C)CO)C(=O)Cc2cc(NS(C)(=O)=O)ccc2O[C@H]1CN(C)S(=O)(=O)c1ccc(F)cc1 | inactive | inactive | inactive
9 | CCS(=O)(=O)N1C[C@]2(CCN(CC2)S(=O)(=O)c2cccs2)c2c(n(c3cc(ccc23)OC)C)[C@H]1CO | inactive | inactive | inactive
10 | C[C@H](CO)N1C[C@H](C)[C@@H](CN(C)C(=O)Nc2cccc(F)c2)Oc2ncc(C#CCN(C)C)cc2C1=O | inactive | inactive | inactive
11 | COc1ccc(CN(C)C[C@H]2OCCCC[C@@H](C)Oc3ccc(NC(=O)Nc4ccc(F)cc4)cc3C(=O)N([C@H](C)CO)C[C@@H]2C)cc1 | inactive | inactive | inactive
12 | COC(=O)[C@@H](Cc1ccc(-n2cc(COc3ccccc3/C=C(C)/C=C/C(=O)NO)nn2)cc1)N1CC(/C=C/C2CC2)=C[C@H]1[C@H](O)Cc1ccccc1 | inactive | inactive | inactive
13 | COc1ccccc1CNC(=O)C[C@H]1C[C@@H]2c3cc(NS(=O)(=O)c4ccc(F)cc4)ccc3O[C@@H]2[C@@H](CO)O1 | inactive | inactive | inactive
14 | CN1CCN(C(=O)C[C@H]2CC[C@@H](NC(=O)c3ccc4c(c3)OCO4)[C@@H](CO)O2)CC1 | inactive | inactive | inactive
15 | C[C@@H]1CN([C@H](C)CO)C(=O)Cc2cc(NS(C)(=O)=O)ccc2O[C@@H]1CN(C)S(=O)(=O)c1ccc(F)cc1 | inactive | inactive | inactive
16 | C[C@H]1CN([C@@H](C)CO)C(=O)Cc2cc(NC(=O)Nc3cccc4ccccc34)ccc2O[C@@H]1CN(C)Cc1ccc(Cl)c(Cl)c1 | inactive | inactive | inactive
17 | C[C@@H]1CCCCO[C@@H](CN(C)C(=O)c2ccccc2)[C@@H](C)CN([C@@H](C)CO)C(=O)c2cc(NS(=O)(=O)c3ccccc3)ccc2O1 | inactive | inactive | inactive
18 | NCC[C@H]1CC[C@@H](NC(=O)c2ccccc2F)[C@H](CO)O1 | inactive | inactive | inactive
19 | Cc1ccc(S(=O)(=O)Nc2ccc3c(c2)CC(=O)N([C@@H](C)CO)C[C@@H](C)[C@H](CN(C)S(=O)(=O)c2c(C)noc2C)O3)cc1 | inactive | inactive | inactive
20 | C[C@@H]1CN([C@H](C)CO)C(=O)c2cc(NC(=O)CCC(F)(F)F)ccc2O[C@@H](C)CCCCO[C@H]1CN(C)C(=O)NC1CCCCC1 | inactive | inactive | inactive

Row | Compound | cytotoxicity call (HSkMC) | cytotoxicity call (HepG2) | growth inhibition call (S. aureus RN4220)
21 | Cc1ccc(S(=O)(=O)N(C)C[C@@H]2Oc3ccc(NS(=O)(=O)c4c(C)noc4C)cc3CC(=O)N([C@@H](C)CO)C[C@@H]2C)cc1 | inactive | inactive | inactive
22 | C[C@@H]1CCCCO[C@H](CN(C)C(=O)C2CCCCC2)[C@H](C)CN([C@@H](C)CO)C(=O)c2cc(NS(=O)(=O)c3ccccc3)ccc2O1 | inactive | inactive | inactive
23 | Cn1cnc(CN)c1 | inactive | inactive | inactive
24 | CCCCCC(CC(=O)O)C(=O)O (centres undefined) | inactive | inactive | inactive
25 | C[C@@H]1CN([C@H](C)CO)C(=O)c2cc(NC(=O)CCCN(C)C)ccc2O[C@@H](C)CCCCO[C@H]1CN(C)C(=O)Nc1ccc(F)cc1 | inactive | inactive | inactive
26 | COc1ccc(CN2C[C@H](C)[C@@H](OC)CN(C)C(=O)c3ccc(NC(=O)c4nc5ccccc5s4)cc3OC[C@H]2C)cc1 | inactive | inactive | inactive
27 | C[C@H]1CN([C@@H](C)CO)C(=O)Cc2cc(N(C)C)ccc2O[C@@H]1CN(C)S(=O)(=O)c1ccc(Cl)cc1 | inactive | inactive | inactive
28 | COc1ccc(NC(=O)N(C)C[C@H]2OCCCC[C@@H](C)Oc3ccc(NC(=O)Nc4ccc5c(c4)OCO5)cc3C(=O)N([C@H](C)CO)C[C@@H]2C)cc1 | inactive | inactive | inactive
29 | C[C@@H]1CN([C@@H](C)CO)S(=O)(=O)c2ccc(C#Cc3ccccc3)cc2O[C@@H]1CN(C)C(=O)c1ccccn1 | inactive | inactive | inactive
30 | O=C(CCCCCNC(=O)OCCCCO[C@H]1C[C@@H](c2ccc(C(F)(F)F)cc2)C=C(C(=O)N2CCN(Cc3ccccc3)CC2)O1)NO | inactive | inactive | inactive
31 | COc1ccccc1-c1cnc2c(c1)C(=O)N([C@@H](C)CO)C[C@@H](C)[C@H](CN(C)C(=O)c1cccnc1)O2 | inactive | inactive | inactive
32 | C[C@H]1CN([C@@H](C)CO)C(=O)c2cc(NC(=O)Cc3cn(C)c4ccccc34)ccc2O[C@H]1CN(C)S(C)(=O)=O | inactive | inactive | inactive
33 | C[C@@H]1CNS(=O)(=O)CO1 | inactive | inactive | inactive
34 | O=C(O)c1cc(-n2cnnn2)ccc1O | inactive | inactive | inactive
35 | COCC#Cc1cnc2c(c1)C(=O)N([C@@H](C)CO)C[C@H](C)[C@@H](CN(C)C(=O)c1ccc3c(c1)OCO3)O2 | inactive | inactive | inactive
36 | C[C@@H]1CN([C@H](C)CO)C(=O)c2cc(NC(=O)CCC(F)(F)F)ccc2O[C@@H](C)CCCCO[C@H]1CN(C)S(=O)(=O)c1ccc(Cl)cc1 | inactive | active | inactive
37 | C[C@@H]1CN([C@H](C)CO)C(=O)Cc2cc(NC(=O)Cn3cnnn3)ccc2O[C@H]1CN(C)Cc1ccncc1 | inactive | inactive | inactive
38 | CCCNC(=O)Nc1ccc2c(c1)OC[C@@H](C)N(C(=O)C1CCOCC1)C[C@H](C)[C@@H](OC)CN(C)C2=O | inactive | inactive | inactive
39 | C[C@@H]1CN([C@@H](C)CO)C(=O)Cc2cc(NC(=O)c3ccncc3)ccc2O[C@H]1CN(C)Cc1ccncc1 | inactive | inactive | inactive
40 | CC(C)NC(=O)N(C)C[C@H]1Oc2c(NC(=O)C3CCCCC3)cccc2C(=O)N([C@@H](C)CO)C[C@@H]1C | inactive | inactive | inactive

Row | Compound | cytotoxicity call (HSkMC) | cytotoxicity call (HepG2) | growth inhibition call (S. aureus RN4220)
41 | C[C@@H]1CCCCO[C@H](CN(C)Cc2ccc(C(=O)O)cc2)[C@H](C)CN([C@H](C)CO)C(=O)c2cc(NC(=O)Nc3ccc(C(F)(F)F)cc3)ccc2O1 | inactive | inactive | inactive
42 | C[C@H]1CCCCO[C@H](CN(C)C(=O)Cc2ccccc2)[C@@H](C)CN([C@@H](C)CO)C(=O)c2cc(NC(=O)NC3CCCCC3)ccc2O1 | inactive | inactive | inactive
43 | CN1CCN(C(=O)Cn2cc(-c3ccc(C(=O)NO)cc3)nn2)CC1 | inactive | inactive | inactive
44 | C[C@@H]1CN([C@@H](C)CO)C(=O)CCCn2nncc2CO[C@@H]1CN(C)C(=O)Nc1ccc(N2CCCCC2)cc1 | inactive | inactive | inactive
45 | Cc1noc(C)c1S(=O)(=O)N(C)C[C@H]1OCCCC[C@@H](C)Oc2ccc(NC(=O)Nc3ccc(C(F)(F)F)cc3)cc2C(=O)N([C@H](C)CO)C[C@@H]1C | inactive | active | inactive
46 | CC1(O)CCOC(=O)C1 (centres undefined) | inactive | inactive | inactive
47 | CCCCOC(=O)c1ccc(N)cc1 | inactive | inactive | inactive
48 | C[C@@H]1CN([C@H](C)CO)C(=O)Cc2cc(NC(=O)c3ccncc3)ccc2O[C@@H]1CN(C)S(=O)(=O)c1cn(C)cn1 | inactive | inactive | inactive
49 | Cc1ccc(C(C)C)cc2c(C)ccc1-2 | inactive | inactive | inactive
50 | Cc1cc(-c2ccccc2)nc(-c2ccccc2)c1C | inactive | inactive | inactive
51 | COCCOC(=O)C1=C(C)NC(C)=C(C(=O)OC(C)C)C1c1cccc([N+](=O)[O-])c1 (centres undefined) | inactive | inactive | inactive
52 | C[C@H](CO)N1C[C@H](C)[C@H](CN(C)S(C)(=O)=O)Oc2ncc(C#Cc3ccc(C(F)(F)F)cc3)cc2C1=O | inactive | inactive | inactive
53 | Cc1ccc(S(=O)(=O)Nc2ccc3c(c2)C(=O)N([C@H](C)CO)C[C@@H](C)[C@@H](CN(C)C(=O)C2CCCCC2)OCCCC[C@@H](C)O3)cc1 | inactive | inactive | inactive
54 | O=C(N[C@@H]1CC[C@@H](CCNS(=O)(=O)c2ccc(F)cc2)O[C@H]1CO)C1CC1 | inactive | inactive | inactive
55 | C[C@H]1CN([C@@H](C)CO)C(=O)c2c(c3ccccc3n2C)-c2ccccc2CO[C@@H]1CN(C)C(=O)Nc1cccc(C(F)(F)F)c1 | inactive | inactive | inactive
56 | CCNC(=O)C[C@H]1CC[C@@H]2[C@H](COC[C@H](O)CN2C(=O)Nc2c(C)noc2C)O1 | inactive | inactive | inactive
57 | CS(=O)(=O)c1ccc(O)c(C(=O)O)c1 | inactive | inactive | inactive
58 | Cc1ccc(S(=O)(=O)N(C)C[C@@H]2Oc3ccc(N(C)C)cc3CC(=O)N([C@@H](C)CO)C[C@@H]2C)cc1 | inactive | active | inactive
